Assay [1] addresses T1, his-tagged human CD73 (AcroBiosystems, Cat. No. CD3-H52H7) (human, UniProt P21589 27-547).
T1 construct: Bought protein; also called hCD73-His; human CD73 antigen; not shown: His tag
T1 sequence (looked up): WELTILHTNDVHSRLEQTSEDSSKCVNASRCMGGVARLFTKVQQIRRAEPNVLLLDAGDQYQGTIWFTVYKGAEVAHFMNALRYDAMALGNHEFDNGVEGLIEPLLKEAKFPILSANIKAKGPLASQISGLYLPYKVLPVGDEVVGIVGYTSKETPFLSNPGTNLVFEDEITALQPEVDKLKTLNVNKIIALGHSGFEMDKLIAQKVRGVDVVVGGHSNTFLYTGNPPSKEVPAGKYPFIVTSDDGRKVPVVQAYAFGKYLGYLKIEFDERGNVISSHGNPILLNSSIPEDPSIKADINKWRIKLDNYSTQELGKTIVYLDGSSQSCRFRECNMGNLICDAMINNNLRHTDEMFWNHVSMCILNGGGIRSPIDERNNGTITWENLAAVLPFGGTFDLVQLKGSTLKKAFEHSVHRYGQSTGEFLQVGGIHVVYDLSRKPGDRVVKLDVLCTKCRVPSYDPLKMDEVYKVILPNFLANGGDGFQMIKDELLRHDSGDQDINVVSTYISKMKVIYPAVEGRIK
Kind of assay: BLI (Octet), bsAb on AHC sensor, hCD73-His 2-fold from 30 nM, 7 points. As for the experimental part: The affinity of anti-CD73 mAbs and bsAbs were determined by biolayer interferometry analysis (ForteBIO, USA). In this method, anti-CD73 antibodies were loaded at 5 μg/mL on AHC (Anti-Human IgG Fc Capture, ForteBIO, Cat. No. 18-5060) for signal reach to approximate 0.5 nm. Sensors then were exposed to his-tagged human CD73 (AcroBiosystems, Cat. No. CD3-H52H7)-containing solutions that 2-fold serial diluted from the top concentration 30 nM for total 7 points. Measurements were performed as follows: 1 minute baseline in kinetic buffer, 5 minutes association in hCD73-His-containing solutions, and 5 minutes dissociation into kinetic buffer. The kinetic parameters were calculated and produced by Octet Data Acquisition and Analysis Software.
In general terms: BLI is a label-free optical method that tracks binding on a fibre tip over time.

The target in assay [2] is T2, mouse Fc tagged human CD137 protein (AcroBiosystems, Cat #41B-H5256) (human, UniProt Q07011 24-186).
T2 construct: extracellular domain; Bought protein; also called CD137 extracellular domain fused with mouse Fc tag recombinant protein; human CD137 antigen
Kind of assay: BLI (Octet) against human CD137 antigen; the set-up for CD137 is not described for these bsAbs.

The term Kd denotes the equilibrium constant for the complex coming apart.

B1: anti-CD73#3-1-28-CD137#54 bsAb (bispecific antibody, human IgG1, lambda, N297A)
heavy chain with C-terminal CD137#54 scFv: QVQLVQSGAEVKKPGSSVKVSCKASGGTFSSYAISWVRQAPGQGLEWMGRIIPILGIANYAQKFQGRVTITADKSTSTAYMELSSLRSEDTAVYYCARDSPVHYYGSGSYYRDAFDIWGQGTMVTVSSASTKGPSVFPLAPSSKSTSGGTAALGCLVKDYFPEPVTVSWNSGALTSGVHTFPAVLQSSGLYSLSSVVTVPSSSLGTQTYICNVNHKPSNTKVDKKV[sequence of human IgG1 Fc with N297A K322A (EU numbers) not given]GGGGSGGGGSQVQLVQSGAEVKKPGSTVKVSCKASGGTFSSYAISWVRQAPGQGLEWMGRIIPILGIANYAQKFQGRVTITADKSTSTAYMELSSLRSEDTAVYYCASPPYYDSSGYYPLGAFDIWGQGTMVTVSSAGGGGSGGGGSGGGGSGGGGSSYELTQPPSVSVSPGQTASITCSGDKLGEKYASWYQQKAGQSPILVIYQDSKRPSGIPERFSGSNSGNTATLTISGLQAGDEADYYCQAWDGSSTYVFGTGTKVTVLG
light chain: QSVLTQPPSASGTPGQRVIISCSGSSSNIGSNSVYWYQQLPGTAPKLLIYSNNQRPSGVPGRFSGSKSGTSASLAISGLRSEDEADYYCAAWDDSLRGPVFGGGTKLTVLGQPKAAPSVTLFPPSSEELQANKATLVCLISDFYPGAVTVAWKADSSPVKAGVETTTPSKQSNNKYAASSYLSLTPEQWKSHRSYSCQVTHEGSTVEKTVAPTECS
notes: bsAb of the parental clone #3-1-28; also called Anti-CD73#CR3-1-28-CD137#54 bsAb; #3-1-28-#54
B1: the results for the Kd in assay [1] and in assay [2] were 1.21 nM and 0.729 nM, respectively.

B2: anti-CD73 #3-1-28-v3-CD137 #54 bsAb (bispecific antibody, human IgG1, lambda, N297A)
heavy: QVQLVQSGAEVKKPGSSVKVSCKASGGTFSSYAISWVRQAPGQGLEWMGRIIPILGIANYAQKFQGRVTITADKSTSTAYMELSSLRSEDTAVYYCARDSPVHYYGDGTYYRDSFDIWGQGTMVTVSSASTKGPSVFPLAPSSKSTSGGTAALGCLVKDYFPEPVTVSWNSGALTSGVHTFPAVLQSSGLYSLSSVVTVPSSSLGTQTYICNVNHKPSNTKVDKKV[sequence of human IgG1 Fc with N297A K322A (EU numbers) not given]GGGGSGGGGSQVQLVQSGAEVKKPGSTVKVSCKASGGTFSSYAISWVRQAPGQGLEWMGRIIPILGIANYAQKFQGRVTITADKSTSTAYMELSSLRSEDTAVYYCASPPYYDSSGYYPLGAFDIWGQGTMVTVSSAGGGGSGGGGSGGGGSGGGGSSYELTQPPSVSVSPGQTASITCSGDKLGEKYASWYQQKAGQSPILVIYQDSKRPSGIPERFSGSNSGNTATLTISGLQAGDEADYYCQAWDGSSTYVFGTGTKVTVLG
light: QSVLTQPPSASGTPGQRVIISCSGSSSNIGSNSVYWYQQLPGTAPKLLIYSNNQRPSGVPGRFSGSKSGTSASLAISGLRSEDEADYYCAAWDDSLRGPVFGGGTKLTVLGQPKAAPSVTLFPPSSEELQANKATLVCLISDFYPGAVTVAWKADSSPVKAGVETTTPSKQSNNKYAASSYLSLTPEQWKSHRSYSCQVTHEGSTVEKTVAPTECS
notes: Engineered IgG1 with the CD137 #54 scFv linked to the Fc C-terminus; also called Anti-CD73 #CR3-1-28-v3-CD137#54
For the molecule B2, the values for the Kd in assay [1] and in assay [2] were 0.621 nM and 0.756 nM, respectively.

B3: anti-CD73 #3-1-28-v2-CD137 #54 bsAb (bispecific antibody, human IgG1, lambda, N297A)
heavy: QVQLVQSGAEVKKPGSSVKVSCKASGGTFSSYAISWVRQAPGQGLEWMGRIIPILGIANYAQKFQGRVTITADKSTSTAYMELSSLRSEDTAVYYCARDSPVHYYGDGHYYRDAFDIWGQGTMVTVSSASTKGPSVFPLAPSSKSTSGGTAALGCLVKDYFPEPVTVSWNSGALTSGVHTFPAVLQSSGLYSLSSVVTVPSSSLGTQTYICNVNHKPSNTKVDKKV[sequence of human IgG1 Fc with N297A K322A (EU numbers) not given]GGGGSGGGGSQVQLVQSGAEVKKPGSTVKVSCKASGGTFSSYAISWVRQAPGQGLEWMGRIIPILGIANYAQKFQGRVTITADKSTSTAYMELSSLRSEDTAVYYCASPPYYDSSGYYPLGAFDIWGQGTMVTVSSAGGGGSGGGGSGGGGSGGGGSSYELTQPPSVSVSPGQTASITCSGDKLGEKYASWYQQKAGQSPILVIYQDSKRPSGIPERFSGSNSGNTATLTISGLQAGDEADYYCQAWDGSSTYVFGTGTKVTVLG
light: QSVLTQPPSASGTPGQRVIISCSGSSSNIGSNSVYWYQQLPGTAPKLLIYSNNQRPSGVPGRFSGSKSGTSASLAISGLRSEDEADYYCAAWDDSLRGPVFGGGTKLTVLGQPKAAPSVTLFPPSSEELQANKATLVCLISDFYPGAVTVAWKADSSPVKAGVETTTPSKQSNNKYAASSYLSLTPEQWKSHRSYSCQVTHEGSTVEKTVAPTECS
notes: Engineered IgG1 with the CD137 #54 scFv linked to the Fc C-terminus; also called Anti-CD73 #CR3-1-28-v2-CD137#54
In the case of B3, the Kd is 0.637 nM in assay [1] and 0.703 nM in assay [2].

B4: anti-CD73 #3-1-28-v1-CD137 #54 bsAb (bispecific antibody, human IgG1, lambda, N297A)
heavy: QVQLVQSGAEVKKPGSSVKVSCKASGGTFSSYAISWVRQAPGQGLEWMGRIIPILGIANYAQKFQGRVTITADKSTSTAYMELSSLRSEDTAVYYCARDSPVHYYGSGSYYRDAFDIWGQGTMVTVSSASTKGPSVFPLAPSSKSTSGGTAALGCLVKDYFPEPVTVSWNSGALTSGVHTFPAVLQSSGLYSLSSVVTVPSSSLGTQTYICNVNHKPSNTKVDKKV[sequence of human IgG1 Fc with N297A K322A (EU numbers) not given]GGGGSGGGGSQVQLVQSGAEVKKPGSTVKVSCKASGGTFSSYAISWVRQAPGQGLEWMGRIIPILGIANYAQKFQGRVTITADKSTSTAYMELSSLRSEDTAVYYCASPPYYDSSGYYPLGAFDIWGQGTMVTVSSAGGGGSGGGGSGGGGSGGGGSSYELTQPPSVSVSPGQTASITCSGDKLGEKYASWYQQKAGQSPILVIYQDSKRPSGIPERFSGSNSGNTATLTISGLQAGDEADYYCQAWDGSSTYVFGTGTKVTVLG
light: QSVLTQPPSASGTPGQRVIISCSGSSSNIGSNSVYWYQQLPGTAPKLLIYANNERPSGVPGRFSGSKSGTSASLAISGLRSEDEADYYCAAWDDSLRGPVFGGGTKLTVLGQPKAAPSVTLFPPSSEELQANKATLVCLISDFYPGAVTVAWKADSSPVKAGVETTTPSKQSNNKYAASSYLSLTPEQWKSHRSYSCQVTHEGSTVEKTVAPTECS
notes: CD137 #54 scFv linked to the Fc C-terminus; also called #3-1-28-v1 converted to anti-CD73-CD137 bispecific antibody
Take B4: the Kd in assay [1] was 0.492 nM; in assay [2] it was 0.652 nM.

The values above are taken from patent US20250026841A1 (AP BIOSCIENCES, published 2025).
